Laboratory results from the supplement of paper PMC12632987.
Over roughly 1,800 sequences, “median log2 fold change of GCK-ALFA target abundance (FLAG IP / Myc IP barcode read proportion)” has its median near 0.14; the lowest 2% begin near -0.84. This is one part of the list.

T1: TRAF2, Q12933
T1 chain: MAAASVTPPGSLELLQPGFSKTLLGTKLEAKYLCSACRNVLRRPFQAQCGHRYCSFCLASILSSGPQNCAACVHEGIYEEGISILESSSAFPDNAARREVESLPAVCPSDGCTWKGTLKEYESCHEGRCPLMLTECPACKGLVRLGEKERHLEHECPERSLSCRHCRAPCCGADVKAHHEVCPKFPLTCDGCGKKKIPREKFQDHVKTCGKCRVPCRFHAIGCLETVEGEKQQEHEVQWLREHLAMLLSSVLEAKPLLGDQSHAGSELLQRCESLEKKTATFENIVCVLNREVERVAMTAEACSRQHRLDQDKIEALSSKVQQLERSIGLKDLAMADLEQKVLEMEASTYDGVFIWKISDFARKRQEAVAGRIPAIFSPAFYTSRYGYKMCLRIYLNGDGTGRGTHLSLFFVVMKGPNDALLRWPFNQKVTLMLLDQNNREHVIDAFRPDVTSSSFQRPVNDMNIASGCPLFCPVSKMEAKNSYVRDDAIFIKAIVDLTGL

B1: traf2_out_15_48_1362 (protein)
chain: STEDLRATARRINDLIDATLDEVAAELRALLPKLPEEVRPLVERAIEVAENHRSINDTIALLDEAIAKVDPELAAKLQALRDRLRATQREASALFNATLK
B2: traf2_out_16_104_1427 (protein)
chain: GEEKEKRFEEIIKELKEIAERANEIANKAYKLYEKADEEKKEKISDLLVEASELRREALKAAIEAEEKLKEGGDLEEAEKALEELKKRLKEIEKKLKELE
B3: traf2_out_17_178_1681 (protein)
chain: SKEEERAKISAYTDELIDLTEATGAELLAAARADGRLTPEELAALEAARRRGSNRTFLALAERIAPRLSNAAEAAARLAAFRARARELEKKIAEAYKRYE
B4: traf2_out_1_156_894 (protein)
chain: SRTDEFYEEQKERFKNPERRELLTRVTDILIEAKEIAEEAKKDPRLEEILKEAERLIEEAKRLYSRILSATEEELPELREEVERLEEELRELKARFEAAK
B5: traf2_out_1_158_917 (protein)
chain: DTKKNLMLSVIELVGDFEIDSARDNGDEETAKKLEEFSKEVLEKAKELLFKENKSAEEVIEEIKKLAEEKKKEVDEETAKRIDRMTRKIVSGIKQVDKLM
B6: traf2_out_19_16_1963 (protein)
chain: GREEVEEALKEAKERLKEAEKLLEDVKKNIDKLSRDELMDIIVDASEKKREIQERLRRLKEEHPEEEELLKEVEEEAEKALKVLQKTMNLAVDKYLELLK
B7: traf2_out_9_17_2612 (protein)
chain: SAEEEKLKEKTLEAIKEVLKELVEKGYITEEEAEEILKKVKELIEKGASVDEIIATFLGDVASILLTKSNLSLSEANKIVGEAYKKLREKLAEIKKELAA
B8: traf2_out_16_104_1391 (protein)
chain: AAARRAEFEAIAARLEAIAEEAGRIANRLYELYEKADAERKTELSDLLVEASELRRRALEAALAVRAALATGGDLAAARATLEELEAELERIRERARELE
B9: traf2_out_17_178_1711 (protein)
chain: SKEKAREEISKATDEMIDLAEEAAARLLEIAEREGSLSPEELAALRRARRLGSARTTLALMERAIPRSASAEEVQALLDEFKAEYRKLSKKIAEALKKYE
B10: traf2_out_3_89_2299 (protein)
chain: MEEEERKIEEARERAERYAEGFRKSLTFVAKQMIKDGMSLETLKGVAEAARDALVEVFRERLKELGLSEETIEELVKELREKLEKIVEEIIAEAEAKRKA
B11: traf2_out_11_104_651 (protein)
chain: LTREQAREFNDFAMEQRDRAHAIGAAVAATLAAAGHTAEAAAVTAALNDPGAGISTLRNLLEELRPRLDPASQAVADAAIAELRALQQEASDKLNELEAE
B12: traf2_out_20_3_2064 (protein)
chain: SELEEELEEELERALELLEEAAEAADPETAARLEELRERLEASRELSYDDRLVELSEIRRELLELAEEARARGDEELARLLEEAADALNRAMQLTYQIIQ
B13: traf2_out_11_155_734 (protein)
chain: SARREAQRAINDHALEIGDELVKYVKEIIKKVAEKNPEDAKKLEEIFNKHLKFSNRSAALAVADKLKELGYEEEAKELEKKIEEANKEASAFVKEVEAKL
B14: traf2_out_15_17_1303 (protein)
chain: KISPEDARALTDKALEARDQAKALVAEVLATLTAKGKLTPEQKAELEALLAEPGVSLHVYRDRITAILEAAGEEELKKEATAKLDALIDDVNALANKVLA
B15: traf2_out_8_144_2540 (protein)
chain: HMTKRELANELANVLVELDELKELADEETKEVLTKARREVGQALNLVVFGGEKEEILKELEEAAKYLKEAIKLVEDNEELKKKAEEALKKVKEIIKDVKE
B16: traf2_out_13_95_1150 (protein)
chain: SAETAKKIMEVADEMVDKVIEILEKLLEEAKKKGIPTEPIQEALDLAKYRSINEAIHKLEELAKEYPEMKEELEKAIKEIKAIRREAGRKVAEIIKEEKA
B17: traf2_out_6_156_2410 (protein)
chain: MVDAIFKEALEKIEKEIKKLSEASEEKKIKYISNIAGTVYRALQQLRDAGASLAEIEAFAKKLKAEIEKKLKEAGLPEDTINLVLSSINAVFDVAIADAK
B18: traf2_out_1_27_998 (protein)
chain: SDEEFRALLRELDRAIARLSFEEALEAVREAIRRALEIGIGDAEHAAVVAVLSLSEEEEVERVLEVIREVLEEEGVSEEEIERIERKARTGFELLQKALA
B19: traf2_out_20_38_2040 (protein)
chain: EEEKEEEERLLEIAKKATEVADKTEAWVEEKLAAGVSPEEIIAETKKLITEKLAAIGKEEEAKELIERLDTLAAAGEVRRGVVLVMARAAAIVYQKEQEE

Target: T1, TRAF2, Q12933
Test: median log2 fold change of GCK-ALFA target abundance (FLAG IP / Myc IP barcode read proportion) (log2 ratio); each designed protein is fused to an ALFA-tag nanobody in HEK293 cells to bring the named protein to FLAG-tagged glucokinase (GCK); Myc marks an untargeted standard; higher = target protein stabilised (more abundant)
Settings: target protein: 3xFLAG-MCP-GCK-ALFA reporter; HEK293 landing pad (RPLP)
In short: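 HEK293 landing-pad cells received a recombined binder library fused to the ALFA nanobody and were induced with 2 μg mL^−1 doxycycline, then transfected with a plasmid encoding a FLAG-tagged target and a Myc-tagged standard. Lysates were collected after 48 h for anti-FLAG and anti-Myc immunoprecipitation, and the circular RNA barcodes were reverse transcribed, amplified and sequenced. Target abundance for each binder is the median log2 ratio of FLAG to Myc barcode read proportions. Barcodes had to reach a proportion of at least 10^−7 in both replicates, each binder needed at least 3 barcodes per replicate, a pseudocount of 10^−6 was applied, and the two replicates were pooled.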

Binder | median log2 fold change
B1 | 0.184
B2 | 0.167
B3 | -0.221
B4 | 0.217
B5 | -0.296
B6 | -0.566
B7 | 0.347
B8 | 0.135
B9 | -0.378
B10 | -0.669
B11 | 0.306
B12 | 0.123
B13 | 0.0774
B14 | 0.211
B15 | -0.00265
B16 | -0.837
B17 | 0.298
B18 | -0.273
B19 | 0.281
